Hit rate of the full screen: of about 360,000 compounds, about 520 (0.14%) were called active. Inconclusive means that the source gave no clear call. Such entries were picked first, then a sample of the others. Calls follow the shape of the dose curve; as a rule, active = well fitted inhibition curve with a large enough effect; inconclusive = small, poorly fitted or top-dose-only effect; inactive = no such curve, though single readings can be large or run the other way. No potency is given beside an inconclusive call; the fits are too rough.
biological target: Rap guanine nucleotide exchange factor 3 (Homo sapiens) (UniProt O95398); experiment: qHTS for Antagonist of cAMP-regulated guanine nucleotide exchange factor 3 (EPAC1): primary screen; settings: EPAC1 GEF assay, Rap1b-BODIPY-GDP exchange fluorescence; activity change, negative = inhibition: at 115 µM (top of the series); also: nearly all actives have a fitted effect of over 50% in size;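 as to activity change, negative = inhibition: plate controls were vehicle for no effect and positive control for full effect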
Potency is read from the fitted curve at half-maximal effect; tags tell the direction and shape of the fitted curve.

UniProt O95398, sequence (O95398 whole entry, looked up): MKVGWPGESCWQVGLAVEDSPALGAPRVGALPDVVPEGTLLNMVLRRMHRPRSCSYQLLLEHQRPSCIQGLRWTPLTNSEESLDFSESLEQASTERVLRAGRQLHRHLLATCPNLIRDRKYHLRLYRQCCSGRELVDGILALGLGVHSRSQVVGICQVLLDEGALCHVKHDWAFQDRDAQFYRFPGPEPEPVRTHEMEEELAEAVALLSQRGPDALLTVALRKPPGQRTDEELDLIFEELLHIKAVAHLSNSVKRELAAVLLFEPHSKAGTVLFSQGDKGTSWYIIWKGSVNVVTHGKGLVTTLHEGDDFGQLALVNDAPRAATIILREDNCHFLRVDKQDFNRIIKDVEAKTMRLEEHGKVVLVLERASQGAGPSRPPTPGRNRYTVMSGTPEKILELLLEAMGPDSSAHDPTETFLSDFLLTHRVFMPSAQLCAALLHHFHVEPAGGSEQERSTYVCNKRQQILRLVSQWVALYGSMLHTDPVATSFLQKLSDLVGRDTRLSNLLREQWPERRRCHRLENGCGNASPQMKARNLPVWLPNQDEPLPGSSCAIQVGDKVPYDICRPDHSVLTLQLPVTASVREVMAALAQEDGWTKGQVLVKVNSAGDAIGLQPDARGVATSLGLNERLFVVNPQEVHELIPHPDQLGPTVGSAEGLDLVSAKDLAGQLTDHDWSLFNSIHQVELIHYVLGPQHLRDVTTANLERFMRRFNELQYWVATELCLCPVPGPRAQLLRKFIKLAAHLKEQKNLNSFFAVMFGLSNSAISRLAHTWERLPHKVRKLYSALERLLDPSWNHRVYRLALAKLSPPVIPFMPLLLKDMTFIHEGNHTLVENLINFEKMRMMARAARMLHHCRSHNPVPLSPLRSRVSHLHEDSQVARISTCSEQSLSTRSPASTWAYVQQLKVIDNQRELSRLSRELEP

| SMILES | Potency | activity change, negative = inhibition |
| --- | --- | --- |
| COc1cc(-c2nnc(SCc3cc(=O)oc4cc(O)c(O)cc34)o2)cc(OC)c1OC | inconclusive [inhibitor, full curve] |  |
| O=C(N/N=C/c1ccc(O)cc1)/C(=C/c1ccccc1)CCO |  | inactive: -19.6% |
| O=C(COC(=O)c1nc(-c2ccccc2)n(-c2cccc(C(F)(F)F)c2)n1)NCc1cccs1 | inconclusive [inhibitor, single point] |  |
| Cc1cc(C)cc(-n2c(C)cc(/C=N\NC(=O)COc3cccc4cccnc34)c2C)c1 | inconclusive [inhibitor, single point] |  |
| CCOc1cc(C2C3=C(CCCC3=O)NC3=C2C(=O)CCC3)cc(Cl)c1O | inconclusive [inhibitor, single point] |  |
| C[C@H]1CN([C@@H](C)CO)C(=O)CCCn2nncc2CO[C@H]1CN(C)S(=O)(=O)c1ccc(C#N)cc1 |  | inactive: 11.2% |
| CN1CCN(S(=O)(=O)c2ccc3ccccc3c2)CC1 | inconclusive [inhibitor, partial curve] |  |
| CCN1/C(=C2/SC(=S)N(NC(C)=O)C2=O)Sc2ccc(Cl)cc21 | inconclusive [inhibitor, partial curve] |  |
| COc1ccc(CC(O)CC2c3c(cc4c(c3OC)OCO4)CCN2C)cc1 (stereo unspecified) |  | inactive: 4.54% |
| CC(C)[C@H](NC(N)=O)C(=O)Nc1ccc(Oc2ccccc2)cc1 | inconclusive [inhibitor, full curve, poor fit] |  |
| CCOc1ccc(NC(=O)C2CC(=O)N(c3ccccc3F)C2)cc1 (stereo unspecified) | inconclusive [inhibitor, partial curve] |  |
| CCCCCCCCN1C(=O)[C@H](CC(=O)N2CCN(C(=O)OCC)CC2)C[C@@]2(C(=O)OC)CCCCC=C12 |  | inactive: -5.93% |
| C/C=C/C(=O)N1c2ccc(C)cc2C(C)=CC1(C)C | inconclusive [inhibitor, full curve, poor fit] |  |
| Cc1ccc(C)c(S(=O)(=O)NNC(=O)c2sc(NS(=O)(=O)c3ccccc3)nc2C)c1 | inconclusive [inhibitor, full curve, poor fit] |  |
| CCCCCn1nnnc1C1c2ccccc2C(=O)N1Cc1ccco1 (stereo unspecified) |  | inactive: 4.16% |
| O=C(O)CSc1nc2sc3c(c2c(=O)n1-c1ccccc1)CCC3 | inconclusive [inhibitor, partial curve] |  |
| Cc1ccc(CSc2ncnc3c2cnn3-c2ccc(C)cc2)cc1 |  | inactive: -2.17% |
| CCOC(=O)C1=C(C)N=c2s/c(=C\c3ccc(C(=O)O)cc3)c(=O)n2C1c1ccc(OC)cc1OC (stereo unspecified) | inconclusive [inhibitor, single point] |  |
| CCCCOc1ccc(C(=O)N/N=C/c2cn[nH]c2-c2ccc(OC)c(OC)c2)cc1 | inconclusive [inhibitor, partial curve] |  |
| CCCc1cc2c(OC(=O)CC)c(-c3ccc(C(=O)OCC)o3)c(=O)oc2cc1OC | inconclusive [inhibitor, partial curve] |  |
| COCCn1c(-c2ccc(OC)cc2)nc2ccccc21 |  | inactive: 6.02% |
| CC(C)(C)OC(=O)N1CCC[C@H]1C(=O)Nc1ccc(C#N)cc1 | inconclusive [inhibitor, full curve, poor fit] |  |

| SMILES | Potency | activity change, negative = inhibition |
| --- | --- | --- |
| COc1ccc(Cn2c(O)c(C=Nc3ccccc3C(=O)O)c3ccccc3c2=O)cc1 |  | inactive: -10.2% |
| Cc1ccc(C(=O)c2c3ccc(C(F)(F)F)cc3nn2CCC(N)=O)cc1 | inconclusive [inhibitor, partial curve] |  |
| Cc1cc(C)n(-c2ccc(S(=O)(=O)N3CCOCC3)cc2[N+](=O)[O-])n1 | inconclusive [inhibitor, partial curve] |  |
| CCOC(=O)C1C(O)=CC(=O)CC1c1ccccc1 (stereo unspecified) |  | inactive: 1.36% |
| Nc1cccc2c1C(=O)N(C(=O)/C=C/c1cccc(Br)c1)C2=O | inconclusive [inhibitor, partial curve] |  |
| Cc1ccc(COc2ccccc2-c2cc(C(=O)N/N=C/c3cccnc3)[nH]n2)cc1 | inconclusive [inhibitor, partial curve, poor fit] |  |
| COc1cc(/C=N/NC(=O)C(Cc2c[nH]c3ccccc23)NC(=O)OCc2ccccc2)cc([N+](=O)[O-])c1O (stereo unspecified) | active: 79.4 µM |  |
| CC1(C(=O)NCc2ccc(F)cc2)Oc2ccccc2NC1=O (stereo unspecified) | inconclusive [inhibitor, partial curve] |  |
| CN(C)c1ccc(/C=C/C(=O)c2c(O)c3ccccc3oc2=O)cc1 | inconclusive [inhibitor, partial curve] |  |
| CCOC(=O)C1CCN(Cc2nc3ccccc3c(=O)n2-c2ccc(OCC)cc2)CC1 | inconclusive [inhibitor, single point] |  |
| Cc1cc(NC(=O)Cn2nc(C(=O)O)c3ccccc3c2=O)ccc1Br | inconclusive [inhibitor, full curve] |  |
| Cc1ccc(NC(=O)[C@H](Cc2ccccc2)NC(=O)[C@@H]2Cc3ccccc3CN2)c(C)c1 | inconclusive [inhibitor, full curve, poor fit] |  |
| O=C(CSC1=NCCS1)c1ccc(Cl)cc1 |  | inactive: 1.67% |
| Cc1cccc(NC2=C/C(=N/S(=O)(=O)c3cccs3)c3ccccc3C2=O)c1 |  | inactive: 0.234% |
| C=CCc1c(C)nc(-c2ccccc2)nc1Nc1ccc(O)cc1 | inconclusive [inhibitor, partial curve] |  |
| CCCCc1c(C)nc2ccc(C)cc2c1SCCC(=O)O | inconclusive [inhibitor, partial curve, poor fit] |  |
| Cc1cc2nc(-c3cccnc3SCC(=O)NCc3ccco3)[nH]c2cc1C |  | inactive: -7.18% |
| CC1CCC(NC(=O)c2ccc(CNc3c(NC4CCCCC4)c(=O)c3=O)cc2)CC1 (stereo unspecified) | inconclusive [inhibitor, full curve] |  |
| COc1ccc(Sc2ccc(/C=C3\C(=O)NN(c4ccccc4)C3=O)o2)cc1 | inconclusive [inhibitor, single point] |  |
| O=C(Nc1ccccc1C(=O)O)c1cc(S(=O)(=O)Nc2ccccc2)ccc1Cl | inconclusive [inhibitor, single point] |  |
| COc1cc(-n2nc(C)c3c2OC(N)=C(C#N)C3c2ccccc2)c(Cl)c(Br)c1O (stereo unspecified) | inconclusive [inhibitor, partial curve] |  |
| COc1ccc(C(=O)N/N=C\c2ccoc2)cc1 |  | inactive: 0.817% |

| SMILES | Potency | activity change, negative = inhibition |
| --- | --- | --- |
| COc1cc2ncnc(N[C@H](C)c3ccccc3)c2cc1OC | inconclusive [inhibitor, single point] |  |
| CC12CCC(=O)N1C(C(=O)NNC(=O)c1ccc(Cl)cc1)CS2 (stereo unspecified) | inconclusive [inhibitor, single point] |  |
| Cc1ccc(NC(=O)c2cc(N3C(=O)C=CC3=O)ccc2N2CCOCC2)cc1Cl |  | inactive: -14.9% |
| COC(=O)c1cccc(C23CC4(C2)[C@H](CN(Cc2cccnc2)[C@@H]4c2ccccc2)C3c2ccccc2)c1 (stereo partly specified) |  | inconclusive: -18% [inhibitor] |
| Cc1ccc(O)c(NC(=O)CSc2ccc(Cl)cc2)c1 |  | inactive: -11.7% |
| C/C(=N\NC(=O)c1n[nH]c2c1CCC2)c1cccs1 | inconclusive [inhibitor, full curve, poor fit] |  |
| Cc1ccc(C)c(S(=O)(=O)Nc2ccc3cn[nH]c3c2)c1 | inconclusive [inhibitor, full curve] |  |
| Cc1ccc(C)c(NC(=O)CN(C)C(=O)c2ccc3[nH]c4c(c3c2)CC(C)CC4)c1 (stereo unspecified) | inconclusive [inhibitor, full curve, poor fit] |  |
| CN(c1ccccc1)S(=O)(=O)c1cccc(NC(=O)Nc2ccc(Cl)cc2C#N)c1 | inconclusive [inhibitor, partial curve, poor fit] |  |
| S=C(Nc1ccc2cn[nH]c2c1)Nc1ccccc1Cl |  | inactive: -0.401% |
| O=C1NC(=S)S/C1=C\c1ccc(SCc2ccccc2)o1 | active: 22.4 µM |  |
| C=CCNc1sc(C(=O)c2ccccc2)c(N)c1-c1nc2ccccc2s1 | inconclusive [inhibitor, partial curve, poor fit] |  |
| CN(C)CCCN(C(=O)CCc1ccccc1)c1nc2ccc(Br)cc2s1 |  | inactive: -23.2% |
| Cc1ccc(-n2nnnc2CCl)cc1 |  | inactive: -24.8% |
| N#C/C(=C\c1ccccc1)C(=O)NC1CC1 | inconclusive [inhibitor, single point] |  |
| CNc1nc(NCc2ccc(N(C)C)cc2)c2sccc2n1 | inconclusive [inhibitor, single point] |  |
| Cc1ccc(S(=O)(=O)N(C(=O)c2ccncc2)c2ccc(OC(=O)c3ccncc3)c3ccccc23)cc1 | inconclusive [inhibitor, partial curve, poor fit] |  |
| Cc1cc(Cl)ccc1C(=O)C1CCCN(C(=O)c2cccnc2C)C1 (stereo unspecified) | inconclusive [inhibitor, full curve, poor fit] |  |
| CN1CCN(CCNC(=O)Nc2ccccc2[N+](=O)[O-])CC1 | inconclusive [inhibitor, single point] |  |
| COC(=O)C1CN(C(=O)C(C)Oc2cc(C)ccc2C(C)C)c2ccccc2O1 (stereo unspecified) | inconclusive [inhibitor, single point] |  |
| CN(CC(=O)Nc1ccccc1C(F)(F)F)Cc1c(O)ccc2ccccc12 | inconclusive [inhibitor, single point] |  |
| CCN(C(=O)COC(=O)CNS(=O)(=O)c1ccc2ccccc2c1)C1CCCCC1 | inconclusive [inhibitor, single point] |  |
